Reference: the BET-seq Pho4 binding data (Le et al. 2018)
Some of the results follow. Values were computed here from the reads of four pooled replicates and scatter widely.

target: T1, Pho4 (S. cerevisiae) (UniProt P07270); assay: relative binding free energy (BET-seq); higher = weaker binding; settings: reference: library average
T1 sequence: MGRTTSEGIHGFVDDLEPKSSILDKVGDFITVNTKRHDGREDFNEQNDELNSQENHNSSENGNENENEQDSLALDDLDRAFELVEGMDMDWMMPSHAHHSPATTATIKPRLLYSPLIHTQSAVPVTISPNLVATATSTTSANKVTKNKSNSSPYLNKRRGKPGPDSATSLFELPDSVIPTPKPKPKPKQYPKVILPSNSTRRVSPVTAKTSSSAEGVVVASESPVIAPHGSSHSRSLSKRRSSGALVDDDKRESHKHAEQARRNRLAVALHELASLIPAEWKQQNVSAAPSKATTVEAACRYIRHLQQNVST

Sequence	relative binding free energy [kcal/mol]
TAAAGCACGTGTTTGG	-0.07
CGTTACACGTGTGATT	0.11
ATAGTCACGTGATTAA	0.21
GCTCTCACGTGTGTTG	0.29
GGATACACGTGCGAGT	0.36
ATCTTCACGTGTGAGT	0.18
TGCGGCACGTGGGTAA	-0.17
CGGTGCACGTGGAGAT	0.05
TCGGTCACGTGTTTTA	0.06
ATAGGCACGTGTGGGT	-0.03
AGGTTCACGTGCTGTT	0.21
GTGGTCACGTGTCAGG	0.19
TCGCTCACGTGGTTTT	0.33
GTAGCCACGTGGGTGT	-0.21
TATGTCACGTGTTCTG	-0.08
GTTATCACGTGGATTC	0.31
TGTTCCACGTGGCGTA	-0.02
GGGTGCACGTGATTTT	0.25
ATTAGCACGTGTCGGT	-0.08
GTTTACACGTGCTGGA	0.16
ATGTTCACGTGGTGCC	0.07
GCGTGCACGTGAAAGG	0.25
AATGGCACGTGGCTAG	-0.04
TTTAGCACGTGACATG	0.07
CCTTTCACGTGGTTTT	0.1

Sequence	relative binding free energy [kcal/mol]
TTTGACACGTGATTAA	0.14
ATGGTCACGTGTCGCG	0.15
TCGTTCACGTGGAAGG	0.26
CTTGTCACGTGATGAG	0.16
GGGCTCACGTGTGGGA	0.25
TGGGGCACGTGGAACG	-0.1
TTTTGCACGTGCGGGG	0
TTTGTCACGTGAATAG	0.29
GTGTACACGTGGGGGG	-0.08
AGGCTCACGTGTATAG	0.16
CGGCGCACGTGGGTAG	-0.2
TGTGACACGTGTAGTT	0.24
CGTGTCACGTGGTGCA	-0.1
TTTTACACGTGTACAG	0.04
ATGTACACGTGGGGTA	-0.05
AGAGGCACGTGACGTG	0.03
GTTAACACGTGAGATT	0.44
GGGGTCACGTGTTTCG	0.13
CTTAACACGTGTTATT	0.09
TTCAACACGTGTGTTT	0.04
CGGCACACGTGATGGG	0.17
TTTATCACGTGCGGGT	0.22
ATTTTCACGTGAAGGG	0.46
TTCAGCACGTGTCTGT	-0.04
AGGCGCACGTGGAGTG	-0.28

Sequence	relative binding free energy [kcal/mol]
GCTCGCACGTGGGTGG	-0.21
TTGGCCACGTGTTCTG	-0.07
TTTATCACGTGTGTGG	0.16
ATGCCCACGTGTGGGG	-0.18
TAGGCCACGTGTATTG	0.02
GCAGACACGTGTTGGT	-0.02
TTTTACACGTGTAATT	0.2
TGTGGCACGTGAGCCT	0.03
AGGGCCACGTGTGCTT	-0.01
GTTCGCACGTGAGAGT	0.26
AGATGCACGTGTTATG	-0.07
TAACGCACGTGTGAGG	0.01
TTGCGCACGTGTTTAG	-0.05
TATTTCACGTGTAGTC	0.23
TAATCCACGTGATGTA	0.34
ATGTTCACGTGTTGCA	0.08
GGGCTCACGTGGTATA	0.24
GTGTTCACGTGAGCAT	0.45
AAGGTCACGTGGGTGG	-0.05
CGGCGCACGTGGTAGG	-0.21
GAGTTCACGTGTATGT	0.29
TGGTCCACGTGGGCGC	0
TTCTACACGTGGGTGC	0.04
ACGGTCACGTGGTGTC	0.05
TCAGGCACGTGGTTGC	-0.13

Sequence	relative binding free energy [kcal/mol]
TTTTTCACGTGCTTGG	0.25
TTGACCACGTGGGATG	-0.15
TAAGTCACGTGCTAGG	-0.03
ACTGGCACGTGGCGTG	-0.3
ATGTACACGTGTGGCA	0.02
TGGTACACGTGGATGC	-0.02
GGGATCACGTGAGGGG	0.32
GTTCGCACGTGGTCAT	-0.02
TTGATCACGTGCGCGG	-0.08
GCTTGCACGTGGGGTA	-0.09
TGTGGCACGTGAATAT	0.05
AATTACACGTGTGTTG	0.1
TGTCTCACGTGTGGCG	0.18
GGAGGCACGTGACTGG	-0.11
AGGGGCACGTGTAGGT	-0.07
ATTAGCACGTGATGTG	0.01
TAGTTCACGTGCGCGT	0.09
GGTTACACGTGGTAGT	0.23
ATTACCACGTGTGGGA	-0.04
TGAGTCACGTGTCGGC	0.15
ACGGTCACGTGGTAGT	0.11
TATATCACGTGGAGTG	0.3
TATGGCACGTGGTGGC	-0.03
AGCCGCACGTGGTGGT	-0.16
TTTTGCACGTGGAACT	0.15

Sequence	relative binding free energy [kcal/mol]
GAGGGCACGTGAGGAA	0.12
AGTTACACGTGGGCTA	-0.12
ATGGACACGTGTTAGG	-0.03
GGTACCACGTGGTGGG	-0.1
TTTGTCACGTGGCATC	0.07
TGATACACGTGGTGCG	-0.12
TATGACACGTGTGATA	0.08
GGCTTCACGTGAGAGT	0.36
ATTGTCACGTGTTCAT	0.15
TGAGGCACGTGAGTTA	0.05
GGTGGCACGTGTAAAA	0.12
ATATCCACGTGTGGGG	-0.07
TGGGGCACGTGGCCGT	-0.22
GGGCGCACGTGCGGGT	-0.17
TAGAGCACGTGTGAGT	-0.07
GGTAGCACGTGGTCAG	-0.24
ACAATCACGTGTGTTT	0.15
CGTGGCACGTGCGATT	-0.05
ATTGCCACGTGACGGG	0
AGTTGCACGTGGAACG	0.07
CGTAGCACGTGATGGT	0.03
GCAGTCACGTGGGTAT	0.06
TTGTACACGTGATAGG	0.19
TAATTCACGTGACATG	0.46
TTTCTCACGTGGTATT	0.2

Sequence	relative binding free energy [kcal/mol]
TCCGTCACGTGTGGTA	0.2
CAAGGCACGTGCGGTT	-0.12
GAGTACACGTGTTGTC	0.24
TTATTCACGTGTAAGT	0.36
GCATTCACGTGTTGTT	0.25
CGTGGCACGTGCGTTG	-0.19
TATGACACGTGTACGT	-0.05
GCTGTCACGTGGTGAT	0
TGTAACACGTGTATTG	-0.05
GTCTACACGTGAGTGG	0.41
GATATCACGTGGTGTT	0.1
AACTGCACGTGTGTTG	-0.02
GTTGACACGTGTGGTA	0.09
TAATACACGTGGGAGG	-0.03
TCCTTCACGTGGTGTG	0.08
TTTTACACGTGGGGAT	0.08
AGTGGCACGTGGGATT	-0.02
GAGGACACGTGGTATT	0.03
TTTGTCACGTGATGGT	0.15
TTATTCACGTGTTAGG	0.23
AGTGTCACGTGAGGGA	0.09
